Consider ten variants from the supplement of paper PMC12217912.

Sequences and labels used below:
B1: TEV protease; numbered along this chain (parent)
chain: MGESLFKGPRDYNPISSSICHLTNESDGHTTSLYGIGFGPFIITNKHLFRRNNGTLVVQSLHGVFKVKDTTTLQQHLVDGRDMIIIRMPKDFPPFPQKLKFREPQREERICLVTTNFQTKSMSSMVSDTSCTFPSGDGIFWKHWIQTKDGQCGSPLVSTRDGFIVGIHSASNFTNTNNYFTSVPKNFMELLTNQEAQQWVSGWRLNADSVLWGGHKVFMVKPEEPFQPVKEATQL

Variants of B1 are the subject of the experiment. Description: raw area under fraction-flipped curve 0-4 h after induction (AUC4h, not background-subtracted), DNA-recorder readout of cleavage of the substrate (dimensionless); higher = more cleavage of the substrate by the protease variant. As to conditions: temperature: 34 °C; time window: 0-4 h after rhamnose induction.

Some of the results follow. Sequences were assembled here from the parent chain. Values near 0.05 are background.
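Also: Bxb1 expression induced with 0.2% (w/v) L-rhamnose at OD600 near 0.5, cultures sampled hourly, flipped fraction per protease–substrate barcode pair counted by paired-end Illumina sequencing.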

MGESLFKGPRDYNPISSSICHLTNESDGHTTSLYGIGFGPFIITNKHLFRRNNGTLVVQSLHGVFKVKDTTTLQQHLVDGRDMIIIRMPKDFPPFPQKLKFREPQQEERICLVTTNFQTKSMSSMVSDTSCTFPSGDGIFWKHWIQTKDGQCGSPLVSTRDGFIVGIHSASNFTNTNNYFTSVPKNFMELLTNQEAQQWVSGWRLNADSVLWGGHKVFMVKPEEPFQPVKEATQL [R106Q]: the “area with substrate ENCYFQS” value came to 0.0658, the “area with substrate ENDYFQS” value was determined as 0.0674, the “area with substrate ENEYFQS” value was 0.0568 and the “area with substrate ENFYFQS” value worked out at 0.0698. For the same variant, the “area with substrate ENGYFQS” value is 0.0565, the “area with substrate ENHYFQS” value came to 0.0558, the “area with substrate ENIYFQS” value amounted to 0.0965 and the “area with substrate ENMYFQS” value came to 0.0566. For the same variant, the “area with substrate ENNYFQS” value was determined as 0.0536, the “area with substrate ENPYFQS” value is 0.0515, the “area with substrate ENQYFQS” value was found to be 0.0591 and the “area with substrate ENRYFQS” value worked out at 0.0522. Moreover, the “area with substrate ENSYFQS” value amounted to 0.0638, the “area with substrate ENTYFQS” value stood at 0.0433, the “area with substrate ENVYFQS” value was 0.0787 and the “area with substrate ENWYFQS” value was found to be 0.0548. Besides, the “area with substrate ENYYFQS” value came to 0.0583.

As for MGESLFKGPRDYNPISSSICHLTNESDGHTTSLYGIGFGPFIITNKHLFRRNNGTLVVQSLHGVFKVKDTTTLQQHLVDGRDMIIIRMPKDFPPFPQKLKFREPQREERICLVTTNVQTKSMSSMVSDTSCTFPSGDGIFWKHWIQTKDGQCGSPLVSTRDGFIVGIHSASNFTNTNNYFTSVPKNFMELLTNQEAQQWVSGWRLNADSVLWGGHKVFMVKPEEPFQPVKEATQL [F117V], the “area with substrate ENCYFQS” value came out at 0.0758, the “area with substrate ENDYFQS” value was found to be 0.0519, the “area with substrate ENEYFQS” value was determined as 0.0544 and the “area with substrate ENFYFQS” value stood at 0.0563. For the same variant, the “area with substrate ENGYFQS” value is 0.0632, the “area with substrate ENHYFQS” value came to 0.06, the “area with substrate ENIYFQS” value amounted to 0.0694 and the “area with substrate ENKYFQS” value was 0.0565. Besides, the “area with substrate ENPYFQS” value worked out at 0.0414, the “area with substrate ENQYFQS” value was 0.0526, the “area with substrate ENSYFQS” value worked out at 0.0587 and the “area with substrate ENTYFQS” value is 0.0698. The “area with substrate ENVYFQS” value is 0.0665.

Take MGESLFKGPRDYNPISSSICHLTNESDGHTTSLYGIGFGPFIITNKHLFRRNNGTLVVQSLHGVFKVKDTTTLQQHLVDGRDMIIIRMPKDFPPFPQKLKFREPQREERICLVTTNLQTKSMSSMVSDTSCTFPSGDGIFWKHWIQTKDGQCGSPLVSTRDGFIVGIHSASNFTNTNNYFTSVPKNFMELLTNQEAQQWVSGWRLNADSVLWGGHKVFMVKPEEPFQPVKEATQL [F117L]: the “area with substrate ENCYFQS” value is 0.0712, the “area with substrate ENDYFQS” value was found to be 0.0588, the “area with substrate ENEYFQS” value turned out to be 0.0609 and the “area with substrate ENFYFQS” value is 0.086. In addition, the “area with substrate ENIYFQS” value was found to be 0.106, the “area with substrate ENQYFQS” value was 0.0697, the “area with substrate ENSYFQS” value was 0.0944 and the “area with substrate ENTYFQS” value came to 0.0605. Also, the “area with substrate ENVYFQS” value was 0.0726 and the “area with substrate ENWYFQS” value amounted to 0.0605.

For MGESLFKGPRDYNPISSSICHLTNESDGHTTSLYGIGFGPFIITNKHLFRRNNGTLVVQSLHGVFKVKDTTTLQQHLVDGRDMIIIRMPKDFPPFPQKLKFREPQREERICLVTTNFQTKSMSSMVSDTSCTFPSGDGIFWKHWIQTKDGQCGSPLVSTRDGFIVGIHSASNFYNTNNYFTSVPKNFMELLTNQEAQQWVSGWRLNADSVLWGGHKVFMVKPEEPFQPVKEATQL [T174Y], the “area with substrate ENCYFQS” value is 0.0465, the “area with substrate ENEYFQS” value was found to be 0.074, the “area with substrate ENFYFQS” value is 0.0839 and the “area with substrate ENNYFQS” value was 0.0601. Also, the “area with substrate ENPYFQS” value came to 0.0563, the “area with substrate ENQYFQS” value amounted to 0.0661, the “area with substrate ENRYFQS” value was 0.0699 and the “area with substrate ENSYFQS” value was 0.0902. Moreover, the “area with substrate ENTYFQS” value is 0.066 and the “area with substrate ENVYFQS” value was 0.1.

Regarding MGESLFKGPRDYNPISSSICHLTNESDGHTTSLYGIGFGPFIITNKHLFRRNNGTLVVQSLHGVFKVKDTTTLQQHLVDGRDMIIIRMPKDFPPFPQKLKFREPQREERICLVTTNFQTKSMSSMVSDTSCTFPSGDGIFWKHWIQTKDGQCGSPLVSTRDGFIVGIHSASNFANTNNYFTSVPKNFMELLTNQEAQQWVSGWRLNADSVLWGGHKVFMVKPEEPFQPVKEATQL [T174A], the “area with substrate ENCYFQS” value was determined as 0.0577, the “area with substrate ENDYFQS” value stood at 0.0593, the “area with substrate ENHYFQS” value stood at 0.0539 and the “area with substrate ENIYFQS” value is 0.0928. The “area with substrate ENQYFQS” value was determined as 0.0496 and the “area with substrate ENRYFQS” value turned out to be 0.0572.

In the case of MGESLFKGPRDYNPISSSICHLTNESDGHTTSLYGIGFGPFIITNKHLFRRNNGTLVVQSLHGVFKVKDTTTLQQHLVDGRDMIIIRMPKDFPPFPQKLKFREPQREERICLVTTNFQTKSMSSMVSDTSCTFPSGDGIFWKHWIQTKDGQCGSPLVSTRDGFIVGIHSASCFTNTNNYFTSVPKNFMELLTNQEAQQWVSGWRLNADSVLWGGHKVFMVKPEEPFQPVKEATQL [N172C], the “area with substrate ENCYFQS” value was found to be 0.0621, the “area with substrate ENDYFQS” value came out at 0.0616, the “area with substrate ENEYFQS” value came to 0.0916 and the “area with substrate ENGYFQS” value was 0.067. In addition, the “area with substrate ENNYFQS” value was 0.0595, the “area with substrate ENPYFQS” value worked out at 0.074 and the “area with substrate ENQYFQS” value was found to be 0.0646.

Consider MGESLFKGPRDYNPISSSICHLTNESDGHTTSLYGIGFGPFIITNKHLFRRNNGTLVVQSLHGVFKVKDTTTLQQHLVDGRDMIIIRMPKDFPPFPQKLKFREPQREERICLVTTNFQTKSMSSMVSDTSCTGPSGDGIFWKHWIQTKDGQCGSPLVSTRDGFIVGIHSASNFTNTNNYFTSVPKNFMELLTNQEAQQWVSGWRLNADSVLWGGHKVFMVKPEEPFQPVKEATQL [F133G], for which the “area with substrate ENCYFQS” value came out at 0.0679, the “area with substrate ENDYFQS” value came out at 0.0898, the “area with substrate ENFYFQS” value was found to be 0.0718 and the “area with substrate ENIYFQS” value amounted to 0.0545. Moreover, the “area with substrate ENKYFQS” value was determined as 0.0533, the “area with substrate ENMYFQS” value was found to be 0.0592, the “area with substrate ENNYFQS” value is 0.0624 and the “area with substrate ENPYFQS” value stood at 0.0616. Moreover, the “area with substrate ENQYFQS” value is 0.0631, the “area with substrate ENTYFQS” value amounted to 0.0593, the “area with substrate ENVYFQS” value was found to be 0.0945 and the “area with substrate ENYYFQS” value came to 0.0718.

On to MGESLFKGPRDYNPISSSICHLTNESDGHTTSLYGIGFGPFIITNKHLFRRNNGTLVVQSLHGVFKVKDTTTLQQHLVDGRDMIIIRMPKDFPPFPQKLKFREPQREERICLVTTNFQTKSMSSMVSDTSCTFPSVDGIFWKHWIQTKDGQCGSPLVSTRDGFIVGIHSASNFTNTNNYFTSVPKNFMELLTNQEAQQWVSGWRLNADSVLWGGHKVFMVKPEEPFQPVKEATQL [G136V], for which the “area with substrate ENCYFQS” value turned out to be 0.0779, the “area with substrate ENDYFQS” value is 0.0664, the “area with substrate ENEYFQS” value is 0.0598 and the “area with substrate ENHYFQS” value worked out at 0.0569. Also, the “area with substrate ENMYFQS” value amounted to 0.0619, the “area with substrate ENNYFQS” value is 0.0674, the “area with substrate ENQYFQS” value stood at 0.0589 and the “area with substrate ENRYFQS” value amounted to 0.0526. Further, the “area with substrate ENSYFQS” value amounted to 0.0699 and the “area with substrate ENVYFQS” value was 0.0753.

In the case of MGESLFKGPRDYNPISSSICHLTNESDGHTTSLYGIGFGPFIITNKHLFRRNNGTLVVQSLHGVFKVKDTTTLQQHLVDGRDMIIIRMPKDFPPFPQKLKFREPQREERICLVTTNFQTKSMSSMVSDTRCTFPSGDGIFWKHWIQTKDGQCGSPLVSTRDGFIVGIHSASNFTNTNNYFTSVPKNFMELLTNQEAQQWVSGWRLNADSVLWGGHKVFMVKPEEPFQPVKEATQL [S130R], the “area with substrate ENCYFQS” value was determined as 0.0628, the “area with substrate ENDYFQS” value came to 0.0577, the “area with substrate ENFYFQS” value came out at 0.0707 and the “area with substrate ENHYFQS” value was 0.0559. The “area with substrate ENMYFQS” value worked out at 0.0704, the “area with substrate ENQYFQS” value stood at 0.0537, the “area with substrate ENSYFQS” value was found to be 0.0523 and the “area with substrate ENTYFQS” value came out at 0.0506. The “area with substrate ENVYFQS” value was found to be 0.0825.

Turning to MGESLFKGPRDYNPISSSICHLTNESDGHTTSLYGIGFGPFIITNKHLFRRNNGTLVVQSLHGVFKVKDTTTLQQHLVDGRDMIIIRMPKDFPPFPQKLKFREPQREERICLVTTCFQTKSMSSMVSDTSCTFPSGDGIFWKHWIQTKDGQCGSPLVSTRDGFIVGIHSASNFTNTNNYFTSVPKNFMELLTNQEAQQWVSGWRLNADSVLWGGHKVFMVKPEEPFQPVKEATQL [N116C], the “area with substrate ENCYFQS” value stood at 0.0583, the “area with substrate ENDYFQS” value was 0.0487, the “area with substrate ENFYFQS” value amounted to 0.058 and the “area with substrate ENGYFQS” value was determined as 0.0564. In addition, the “area with substrate ENHYFQS” value amounted to 0.0582, the “area with substrate ENNYFQS” value is 0.0399, the “area with substrate ENQYFQS” value was determined as 0.0613 and the “area with substrate ENRYFQS” value came to 0.0719. Further, the “area with substrate ENSYFQS” value was found to be 0.0462, the “area with substrate ENTYFQS” value is 0.0621, the “area with substrate ENVYFQS” value was 0.0759 and the “area with substrate ENYYFQS” value was found to be 0.0504.
